Several values for one entry are separate records, joined by “and”; a condition that tells them apart may be missing. Equal entries are not always repeated. Hit rate of the full screen: of about 16,000 compounds, about 40 (0.2%) were called active. Another 1% or so got no clear call; they are omitted. Calls come from the whole dose curve; as a rule, active = well fitted activation curve with a large enough effect; inconclusive = small, poorly fitted or top-dose-only effect, or another doubt; inactive = no such curve, though single readings can be large or run the other way. The list shows a part of the results. Positions of bridges follow the written chain, without caps; N, C: chain ends. Non-standard residues stand in square brackets, D forms with d. Residues, ends and D or L forms follow the SMILES beside them. *: point of attachment. X2 = CC[C@@H](C)[C@@H](N)C1=N[C@H](C(=O)*)CS1; d(aIle) = CC[C@H](C)[C@@H](N)C(=O)O; dOrn = NCCC[C@@H](N)C(=O)O; X4 = CC[C@H](C)CCCCC(=O)*; Dab = NCC[C@H](N)C(=O)O
% is set by controls: 0 for no effect and ±100 for the full control effect.

This experiment addresses Rap guanine nucleotide exchange factor 4 (Homo sapiens) (UniProt Q8WZA2). As to the kind of experiment: Validation qHTS for agonist of cAMP-regulated guanine nucleotide exchange factor 4 (EPAC2).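 Note: exchange makes BODIPY-GDP fluorescence drop when released from Rap1B; series mostly up to about 150 µM.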 As to conditions: EPAC2 Rap1B BODIPY-GDP exchange, fluorescence; activation: stronger effect = higher value. An excerpt: Principle Investigator: Xiaodong Cheng Ph.D.
UniProt Q8WZA2, sequence (Q8WZA2 whole entry, looked up): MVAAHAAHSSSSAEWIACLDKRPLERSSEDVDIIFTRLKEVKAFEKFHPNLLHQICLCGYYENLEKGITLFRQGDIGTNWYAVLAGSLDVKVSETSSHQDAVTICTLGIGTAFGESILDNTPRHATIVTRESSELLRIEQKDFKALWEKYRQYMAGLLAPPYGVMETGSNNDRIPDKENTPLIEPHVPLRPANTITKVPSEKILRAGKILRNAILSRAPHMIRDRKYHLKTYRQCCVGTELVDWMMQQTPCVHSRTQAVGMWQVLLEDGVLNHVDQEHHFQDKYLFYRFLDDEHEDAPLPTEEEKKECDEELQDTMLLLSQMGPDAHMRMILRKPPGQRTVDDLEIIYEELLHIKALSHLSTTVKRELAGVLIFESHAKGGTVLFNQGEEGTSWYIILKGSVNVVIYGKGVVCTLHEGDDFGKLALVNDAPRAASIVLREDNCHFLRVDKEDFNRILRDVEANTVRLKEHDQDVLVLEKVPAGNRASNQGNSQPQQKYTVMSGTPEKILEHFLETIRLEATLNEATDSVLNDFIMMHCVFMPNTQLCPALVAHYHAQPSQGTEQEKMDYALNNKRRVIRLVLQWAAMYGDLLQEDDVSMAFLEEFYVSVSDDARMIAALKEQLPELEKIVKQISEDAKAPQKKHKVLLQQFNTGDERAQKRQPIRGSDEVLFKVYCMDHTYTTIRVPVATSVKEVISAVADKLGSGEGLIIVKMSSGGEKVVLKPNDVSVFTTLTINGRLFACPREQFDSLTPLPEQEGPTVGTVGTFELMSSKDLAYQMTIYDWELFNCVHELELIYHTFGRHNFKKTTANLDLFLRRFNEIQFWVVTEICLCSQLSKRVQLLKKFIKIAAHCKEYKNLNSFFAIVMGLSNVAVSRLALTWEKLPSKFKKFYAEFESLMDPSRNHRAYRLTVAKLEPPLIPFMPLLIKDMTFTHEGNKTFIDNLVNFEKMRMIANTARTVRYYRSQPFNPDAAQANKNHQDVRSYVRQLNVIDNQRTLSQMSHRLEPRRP
The University of Texas Medical Branch, […], TX
In multi-cellular eukaryotic organisms, the effects of cAMP are transduced by two ubiquitously-expressed intracellular cAMP receptors, the classic protein kinase A/cAMP-dependent protein kinase (PKA/cAPK) and the more recently discovered exchange protein directly activated by cAMP/cAMP-regulated guanine nucleotide exchange factor (EPAC/cAMP-GEF). Both PKA and EPAC are ubiquitously expressed in all tissues, and an increase in intracellular cAMP levels will lead to the activation of both PKA and EPAC. Therefore, careful dissections of the individual role and relative contribution of EPAC and PKA within the overall cAMP signaling in various model systems are critical for further elucidating the mechanism of cAMP signaling. To date no EPAC-specific antagonists and agonist, as well as isoform-specific agonists have been reported, and developing EPAC-specific pharmacological probes to determine the physiological functions that EPAC play in the overall cAMP-mediated signaling remains a major challenge within the research field. Furthermore, identified regulators of EPAC may lead to new mechanism-based therapeutic strategies specifically targeting the EPAC / cAMP-signaling components as EPAC has been implicated to play important roles in major human pathological conditions such as diabetes, heart disease, and cancer.
This qHTS will be used to screen the Molecular Libraries Small Molecule Repository (MLSMR) as a concentration-titration series using the NCGC unique quantitative screening (qHTS) platform to find activators for EPAC1. In addition, this assay will also be used as a counterscreen for the EPAC2 qHTS. This fluorescent based assay is developed and validated for EPAC1 that measures exchange using EPAC effector Rap1 complex with BODIPY-GDP, a GDP analog with a tethered fluorophores. Activators are identified by monitoring the change in fluorescence signal as the exchanged free BODIPY-GDP has a reduced fluorescence compared to Rap1-bound BODIPY-GDP. Increase in signal (activation) is the desired outcome for the EPAC1 agonist while no activity in this assay is desired for the EPAC2 agonist counterscreen.
[1] de Rooij, J., Zwartkruis, F. J., Verheijen, M. H., Cool, R. H., Nijman, S. M., Wittinghofer, A., and Bos, J.L. (1998) Nature 396, 474-477.
Briefly, three uL of reagents (100 nM EPAC2, 250 nM RAP1B-BODIPY-GDP, 50 uM GDP) were dispensed into a 1536-well Greiner black solid-bottom medium binding assay plate. Controls and test compounds (23 nL) were transferred to the plate via a Kalypsys pin tool equipped with a 1536-pin array. The plates were centrifuged at 1,000 rpm for 15 seconds followed by 5 minute incubation at room temperature. The assay plates were read at 5 minute intervals for 30 minutes in the ViewLux plate reader using 480nm excitation and 540nm emission filters. The results were normalized to the agonist positive control of 6.5 mM cAMP.
For `COc1ccccc1-c1nccc(NCc2ccccc2)n1`, the activation is inactive: -0.806%.

With `Cc1occc1C(=O)Nc1cccc(-c2nc(CNC(=O)c3ccc4ccccc4n3)c(C)o2)c1`, the activation was inactive: 4.43%.

As for `C1=Cc2ccccc2/C1=C/c1ccc(/C=C2\C=Cc3ccccc32)cc1`, the activation is inactive: -0.535%.

In the case of `Cc1cc(C)n(Cc2cccc(C(=O)NCC3Cc4cccc(-c5ncccn5)c4O3)c2)n1` (stereo unspecified), the activation is inactive: 4.28%.

For `COC(=O)N1CCC2(CCCN(c3ccncc3)C2)CC1`, the activation was inactive: -7.73%.

For `CCCCCCCN(CC)CCCC(O)c1ccc(NS(C)(=O)=O)cc1` (stereo unspecified), the activation was inactive: -10.7%.

In the case of `CC1C(=O)CCC2[C@]1(C)CCC1[C@]2(C)CC[C@@]2(C)C3CC(C)(C)CC[C@]3(C)CC[C@@]12C` (stereo partly specified), the activation was inactive: -15.6%.

As for `COCCn1c(=O)c(-c2ccc(OC)cc2)nc2cnc(OC)nc21`, the activation is inactive: -18.5%.

Turning to `OC(C[n+]1c(Cl)ccc2ccccc21)c1ccccc1` (stereo unspecified), the activation was inactive: -17.6%.

Regarding `N#Cc1ccccc1-c1ccc2ncnc(NCCN3CCOCC3)c2c1`, the activation was inactive: -0.981%.

`S=C(S)O[C@@H]1C[C@@H]2C[C@H]1[C@@H]1CCC[C@H]21`: the activation is inactive: -28.5%.

Consider `COc1ccc(-c2cc(=O)c3c(O)cc(O[C@@H]4O[C@H](CO[C@@H]5O[C@@H](C)[C@H](O)[C@@H](O)[C@H]5O)[C@@H](O)[C@H](O)[C@H]4O)cc3o2)cc1O`, for which the activation is inactive: -13.8%.

`COc1ccc(/C=C2\NC(=O)[C@@H]3Cc4ccccc4CN3C2=O)cc1`: the activation was inactive: -9.5%.

With `O=C(c1ccncc1)N1CCC2(CCN(Cc3cc(C(F)(F)F)cc(C(F)(F)F)c3)CC2)CC1`, the activation was inactive: -37.6%.

For `C[C@@H]1Oc2ccccc2C=C1/C=C/C(=O)O`, the activation was inactive: -15.8%.

For the compound `CC[N+](CC)(CC)CCOC(=O)C(C1CCCC1)C1CCCC1`, the activation was inactive: -2.82%.

Turning to `CC[N+]1(CC(=O)c2ccc(I)cc2)CCCCC1`, the activation is inactive: -20.6%.

As for `COCCn1c(=O)c(-c2cccc(F)c2)nc2cncnc21`, the activation is inactive: -0.554%.

Turning to `CN1CCC(=O)N([C@H](CSc2ccccc2)Cc2ccccc2)CC1`, the activation is inactive: -25.7%.

Regarding `Cc1nc2ccc(C(=O)N3CCOc4ccc(CN5CCOCC5)cc4C3)cc2nc1C`, the activation is inactive: -7.65%.

With `COc1ccccc1-c1cc2c(c(OC)c1)OCCN(CCC(C)c1ccc(C)o1)C2` (stereo unspecified), the activation was inactive: -6.08%.

`COCC(=O)Nc1cc(C(=O)N2CCN(C3CCCC3)C(=O)C2)c2c(c1)nc(-c1ccncc1)n2C`: the activation was inactive: -6.61%.

Take `O=C(Oc1ccccc1)N1CCC[C@@]2(CCN(c3ccccc3)C2)C1`: the activation was inactive: -5.85%.

Turning to `CC(C)CC(NC(=O)CN)C(=O)NC(Cc1ccccc1)C(=O)O` (stereo not drawn) (H-Gly-Leu-Phe-OH; configuration not given here), the activation is inactive: -3.33%.

On to `c1ccc(-c2cccc(N3CCCC4(CCNCC4)C3)c2)cc1`, for which the activation was inactive: -4.09%.

`O=C(c1ccco1)N1CCC2(CCCN(c3ncccn3)C2)CC1`: the activation is inactive: -3.83%.

As for `O/N=C(/C[n+]1ccsc1)c1ccc(I)cc1`, the activation was inactive: -3.5%.

With `Cc1cccc(CNc2ncncc2-c2ccc3c(c2)OCO3)c1`, the activation was inactive: -13.5%.

In the case of `COc1cc(O)cc(/C=C/c2ccccc2)c1`, the activation was inactive: 2.01%.

With `CC(C)CCCC(C)CCCC(C)CCCCC(C)CCCC(C)CCCC(C)C` (stereo unspecified), the activation is inactive: -15.7%.

In the case of `COC(=O)c1c(OC)cc2c(c1C)Oc1c(Cl)c(OC(C)=O)c(Cl)c(C)c1C(=O)O2`, the activation is inactive: -19.9%.

As for `N#Cc1cc([N+](=O)[O-])c2sc(C(N)=O)[n+]([O-])c2c1`, the activation was inactive: -8.48%.

For the compound `N#Cc1cc2[nH]c(=O)c(=O)[nH]c2cc1[N+](=O)[O-]`, the activation is inactive: -7.04%.

For `CC(=O)/C=C/c1ccc2c(c1)S(=O)(=O)N(C1CCCC1)[C@H]2CC(C)=O`, the activation is inactive: -27.2%.

As for `CO[C@H]1[C@H](NC(=O)c2cccs2)c2ccccc2C12CCN(Cc1cccn1-c1cccnc1)CC2`, the activation is inactive: 1.71%.

In the case of `O=C(c1cccnc1)C1CCCN(Cc2ccc3c(c2)CN(C(=O)c2cccc(Cl)c2)CCO3)C1` (stereo unspecified), the activation is inactive: -21.8%.

`CC1CS(=O)(=O)CCN1/N=C/c1ccc([N+](=O)[O-])o1` (stereo unspecified): the activation was inactive: -4.41%.

Take `CC1CC[C@@]2(C(=O)O)CC[C@]3(C)C(=CCC4[C@@]5(C)CCC(O)C(C)(C)C5CC[C@@]43C)C2C1C` (stereo partly specified): the activation is inactive: -25.2%.

Turning to `CC(=O)NC(CC(=O)O)C(=O)O` (stereo unspecified), the activation is inactive: -16.6%.

As for `CCCCN1C[C@H](Cc2ccccc2)[C@@H](CC(=O)Nc2ccccc2)C1=O`, the activation was inactive: -22.3%.

`CN1CCCC2(CCN(S(=O)(=O)c3ccccc3)CC2)C1`: the activation was inactive: 0.0223%.

Regarding `CCCCN1CC[C@H]2C=CC[C@@H](C(=O)Nc3ccc(OC)cc3)[C@H]2C1=O`, the activation was inactive: -21%.

As for `COCC(=O)N1CCC2(CCCN(c3ccncc3)C2)CC1`, the activation was inactive: -9.43%.

As for `COc1ccc(C(=O)c2ccc(C)cc2)c(O)c1`, the activation is inactive: -17.6%.

For the compound `CC[C@@H](C)[C@@H](N)C1=N[C@H](C(=O)N[C@@H](CC(C)C)C(=O)N[C@@H](CCC(=O)O)C(=O)N[C@@H](C(=O)N[C@@H]2CCCCNC(=O)[C@@H](CC(N)=O)NC(=O)[C@@H](CC(=O)O)NC(=O)[C@@H](Cc3cnc[nH]3)NC(=O)[C@@H](Cc3ccccc3)NC(=O)[C@@H]([C@H](C)CC)NC(=O)[C@@H](CCCN)NC2=O)[C@@H](C)CC)CS1` (X2-LE[d(aIle)][dK][dOrn][dI][dF][dH][dD][dN]; lactam 4-C), the activation is inactive: -3.02% and inactive: -28.2%.

Turning to `COc1cccc(CN2C(=O)NC(C)(C3CCN(Cc4cc(F)cc(F)c4)CC3)C2=O)c1OC` (stereo unspecified), the activation was inactive: -21.7%.

In the case of `Cc1c(C(=O)NCC2COCCO2)cnn1-c1nccc(-c2cccs2)n1` (stereo unspecified), the activation is inactive: -14.4%.

On to `NC(=O)NC(=O)Cc1ccccc1`, for which the activation was inactive: 15.1%.

In the case of `COCC1CCCN(Cc2ccc3c(c2)CN(C(=O)c2ccc(-c4ccc(C)o4)cc2)CCO3)C1` (stereo unspecified), the activation is inactive: -11.2%.

In the case of `FC(F)(F)c1ccccc1-c1cc(NCCN2CCOCC2)ncn1`, the activation was inactive: -9.23%.

Regarding `CC[C@H](C)CCCCC(=O)N[C@@H](CCN)C(=O)N[C@H](C(=O)N[C@@H](CCN)C(=O)N[C@H]1CCNC(=O)[C@H]([C@@H](C)O)NC(=O)[C@H](CCN)NC(=O)[C@H](CCN)NC(=O)[C@H](CC(C)C)NC(=O)[C@@H](CC(C)C)NC(=O)[C@H](CCN)NC1=O)[C@@H](C)O` (X4-[Dab]T[Dab][Dab][Dab][dL]L[Dab][Dab]T; lactam 4-C), the activation is inactive: 0.683%.

(Values after PubChem BioAssay AID1645887 (National Center for Advancing Translational Sciences (NCATS), 2021).)
